The values below come from the supplement of paper PMC7238544.

Structures can show the parent of a compound that is named as a salt. ± gives the standard deviation of the averaged measurements. This is one part of the list.
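Note: compounds in DMSO added 30 min before Lipofectamine 3000 transfection of pEGFP-Luc in 96-well plates, values are means of triplicate wells over DMSO vehicle wells on the same plate.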

For this test, the system named is hAMSC donor 1. Put plainly: transgenic luciferase activity (RLU/mg protein) fold change vs vehicle control (ratio); hAMSC are human adipose-derived mesenchymal stem cells given an EGFP-luciferase plasmid by lipofection; higher = more transgene expression. Conditions: priming compound concentration 100 µM.
For the compound `O=C(O)c1cc(=O)c2c(OCC(O)COc3cccc4oc(C(=O)O)cc(=O)c34)cccc2o1` [Cromolyn sodium], the transgenic luciferase activity was 0.815 ± 0.3.

As for `CC(C)C[C@@H](NC(=O)OCC1c2ccccc2-c2ccccc21)C(=O)O` [N-Fmoc-D-leucine], the transgenic luciferase activity was 0.62 ± 0.25. The result for `CN1CCN(C2=Nc3cc(Cl)ccc3Nc3ccccc32)CC1` [Clozapine] reads 0.257 ± 0.089; that for `CN(C)CC[C@@H](c1ccc(Br)cc1)c1ccccn1` [Dexbrompheniramine maleate], 0.896 ± 0.79; that for `CC12CC3CC(C)(C1)CC(N)(C3)C2` [Memantine hydrochloride], 0.778 ± 0.15.

Turning to `COc1cc(OC)c(C(=O)CCCN2CCCC2)c(OC)c1` [Buflomedil hydrochloride], the transgenic luciferase activity stood at 0.266 ± 0.11. As for `CC(=O)CC(c1ccccc1)c1c(O)c2ccccc2oc1=O` (stereo unspecified) [Warfarin sodium], the transgenic luciferase activity is 0.632 ± 0.39. For the compound `CN(C)CCCN1c2ccccc2CCc2ccccc21` [Imipramine hydrochloride], the transgenic luciferase activity was determined as 0.369 ± 0.19. The result for `C[C@@H]1C[C@H]2[C@@H]3CCC4=CC(=O)C=C[C@]4(C)[C@@]3(F)[C@@H](O)C[C@]2(C)[C@@]1(O)C(=O)COP(=O)(O)O` [Dexamethasone sodium phosphate] reads 7.71 ± 0.4; that for `Cc1ccc(C)c(OCCCC(C)(C)C(=O)O)c1` [Gemfibrozil], 0.538 ± 0.32. The result for `O=C1CCC(N2C(=O)c3ccccc3C2=O)C(=O)N1` (stereo unspecified) [Thalidomide] reads 0.905 ± 0.54; that for `O=C1CCc2cc(OCCCCc3nnnn3C3CCCCC3)ccc2N1` [Cilostazol], 0.937 ± 0.082; that for `CO/N=C(\C(=O)N[C@@H]1C(=O)N2C(C(=O)O)=C(COC(N)=O)CS[C@H]12)c1ccco1` [Cefuroxime], 1.03 ± 0.62. As for `CNCC(O)c1ccc(O)c(O)c1` (stereo unspecified) [Racepinephrine], the figure is 0.629 ± 0.29; as for `CC[C@H]1OC(=O)[C@H](C)[C@@H](O[C@H]2C[C@@](C)(OC)[C@@H](O)[C@H](C)O2)[C@H](C)[C@@H](O[C@@H]2O[C@H](C)C[C@H](N(C)C)[C@H]2O)[C@](C)(O)C[C@@H](C)C(=O)[C@H](C)[C@@H](O)[C@]1(C)O` [Erythromycin], 0.938 ± 0.38; as for `CO[C@H]1/C=C/O[C@@]2(C)Oc3c(C)c(O)c4c(O)c(c(/C=N/N5CCN(C)CC5)c(O)c4c3C2=O)NC(=O)/C(C)=C\C=C\[C@H](C)[C@H](O)[C@@H](C)[C@@H](O)[C@@H](C)[C@H](OC(C)=O)[C@@H]1C` [Rifampicin], 0.234 ± 0.15. Take `COC1=CC(=O)C[C@@H](C)[C@]12Oc1c(Cl)c(OC)cc(OC)c1C2=O` [Griseofulvin]: the transgenic luciferase activity is 0.411 ± 0.11. The result for `NC(=O)c1cnccn1` [Pyrazinamide] reads 0.659 ± 0.2; that for `Cc1cccc(Nc2ccccc2C(=O)O)c1C` [Mefenamic acid], 1.11 ± 1.1. The result for `CCC1(c2ccccc2)C(=O)NCNC1=O` [Primidone] reads 0.893 ± 0.52; that for `CC(C)OC(=O)C(C)(C)Oc1ccc(C(=O)c2ccc(Cl)cc2)cc1` [Fenofibrate], 0.378 ± 0.16; that for `CC(=O)OCC(=O)[C@@]12OC(C)(C)O[C@@H]1C[C@H]1[C@@H]3C[C@H](F)C4=CC(=O)C=C[C@]4(C)[C@@]3(F)[C@@H](O)C[C@@]12C` [Fluocinolone acetonide 21-acetate], 7.36 ± 2.4. The result for `CCN(CC)CCOC(=O)C1(C2CCCCC2)CCCCC1` [Dicyclomine hydrochloride] reads 0.147 ± 0.06.

For `CCCC(=O)Nc1ccc(OCC(O)CNC(C)C)c(C(C)=O)c1` (stereo unspecified) [Acebutolol hydrochloride], the transgenic luciferase activity stood at 0.275 ± 0.24. The result for `CO/N=C(\C(=O)N[C@@H]1C(=O)N2C(C(=O)O)=C(COC(C)=O)CS[C@H]12)c1csc(N)n1` [Cefotaxime sodium] reads 3.62 ± 2.8. As for `CC(C)C(=O)Nc1ccc([N+](=O)[O-])c(C(F)(F)F)c1` [Flutamide], the figure is 1.77 ± 0.49; as for `Clc1ccc(CO/N=C(\Cn2ccnc2)c2ccc(Cl)cc2Cl)c(Cl)c1` [Oxiconazole nitrate], 0.000982 ± 0.00021; as for `CC1Cc2ccccc2N1NC(=O)c1ccc(Cl)c(S(N)(=O)=O)c1` (stereo unspecified) [Indapamide], 0.832 ± 0.38. The result for `C[C@@H]1C/C=C/C=C/C=C/C=C/[C@H](O[C@@H]2O[C@H](C)[C@@H](O)[C@H](N)[C@@H]2O)C[C@@H]2O[C@](O)(C[C@@H](O)C[C@H]3O[C@@H]3/C=C/C(=O)O1)C[C@H](O)[C@H]2C(=O)O` [Natamycin] reads 0.052 ± 0.027; that for `CN/C(=N\CCSCc1nc[nH]c1C)NC#N` [Cimetidine], 2.4 ± 1.1; that for `COC(=O)C[C@](O)(CCCC(C)(C)O)C(=O)O[C@@H]1C(OC)=C[C@]23CCCN2CCc2cc4c(cc2[C@H]13)OCO4` [Homoharringtonine], 0.0142 ± 0.011.
